Measured values as given in PubChem BioAssay AID1347073 (National Center for Advancing Translational Sciences (NCATS), 2019).
Hit rate of the full screen: of about 45,000 compounds, about 200 (0.44%) were called active. Inconclusive results (about 7%) are left out. Calls come from the whole dose curve; as a rule, active = well fitted activation curve with a large enough effect; inconclusive = small, poorly fitted or top-dose-only effect; inactive = no such curve, though single readings can be large or run the other way. This is one part of the list.

test: qHTS of TDP-43 Inhibitors: NCGC Sytravon Library Screen; conditions: yeast TDP-43 toxicity rescue, BacTiter-Glo growth, 24 h; series mostly up to 46.1 µM; growth rescue (activation): at the top concentration; note: nearly all actives have a fitted effect of over 55% in size; for growth rescue (activation): 0% is about no effect
How it was run: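 TDP-43-expressing yeast, pregrown in raffinose, seeded at OD600 0.02 in galactose medium with compound for 24 hr at 30 deg C. Growth read by BacTiter-Glo luminescence, so rescue of toxicity appears as activation.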
Potency is the fitted concentration of half-maximal effect.

SMILES	growth rescue (activation)	Potency
CCN1CCN(C(=O)C(C)Nc2ccc(OC)cc2OC)CC1 (stereo not given)	inactive: 4.24%	
COc1ccc(C)cc1NC(=O)C1CCN(C(=O)c2ccc(C(C)(C)C)cc2)CC1	inactive: 8.29%	
CC(C)(C)NC(=O)NC(=O)CN1CCN(c2cccc(Cl)c2)CC1	inactive: 5.19%	
N#C/C(=C/c1ccc(N2CCOCC2)o1)c1ccc(Br)cc1		active: 14.1 µM
CC1CN(S(=O)(=O)c2cc(C(=O)NCCCN3CCCC3=O)ccc2Cl)CC(C)O1 (stereo not given)	inactive: 7.18%	
CCC(=O)Nc1cccc(-c2csc(-c3ccccc3)n2)c1	inactive: 11.2%	
Cc1ccc(S(=O)(=O)/N=C2\C=C(Nc3cccc(C(=O)O)c3)C(=O)c3ccccc32)c(C)c1	inactive: -11.7%	
COc1ccccc1NC(=O)C1=C(C)Nc2ncnn2C1c1ccc(C)o1 (stereo not given)	inactive: 17.7%	
Cc1ccc(C(=O)CNc2ccccc2)cc1	inactive: 12.3%	
O=C1c2ccccc2NC(c2ccccc2O)N1NS(=O)(=O)c1ccccc1 (stereo not given)	inactive: 1.53%	
COc1ccc2cc(-c3cc(C(=O)OCC(=O)Nc4c(C)n(C)n(-c5ccccc5)c4=O)c4ccccc4n3)ccc2c1	inactive: 24%	
C/C(=N\NC(=O)CNC(=O)C(c1ccccc1)c1ccccc1)c1ccccc1	inactive: 13.6%	
O=C(CCOc1ccccc1)Nc1ccc([N+](=O)[O-])cc1	inactive: 3.68%	
COc1cc(/C=C2/SC(=S)N(Cc3ccccc3)C2=O)ccc1OCC(=O)O	inactive: 5.27%	
COc1ccc(C2C3=C(CCCC3=O)Nc3n[nH]c(C)c32)cc1OC (stereo not given)	inactive: 3.21%	
COc1ccc(C)cc1NC(=O)CNc1ccc(C(C)=O)cc1	inactive: -6.54%	
CCCn1c(=S)[nH]c2ccccc2c1=O	inactive: 5.16%	
CC(NC(=O)COc1ccccc1)C(c1ccccc1)N1CCN(C)CC1 (stereo not given)	inactive: 2.95%	
CN(C(=O)COC(=O)c1ccc2c(c1)OCO2)C1CCCCC1	inactive: -8.94%	
O=C(CN1C(=O)NC2(CCCCCC2)C1=O)NCc1ccc(Cl)cc1	inactive: 23.1%	
COc1ccccc1N(CC(=O)Nc1ccc(C)cc1Cl)S(=O)(=O)c1cccs1	inactive: 3.97%	
COc1ccc(-c2nnc(NC(=O)CSc3ccc(C)cc3)s2)cc1OC	inactive: 3.12%	
Cc1[nH]ccc(=O)c1OCc1c(F)cccc1Cl	inactive: 0.587%	
CC1(C(=O)Nc2cccc3c2CCCC3)CCN1C(=O)CCC1CCCC1 (stereo not given)	inactive: 27.7%	
NS(=O)(=O)c1ccc(CCNC(=O)C2CCN(C(=O)Nc3ccccc3)CC2)cc1	inactive: -44.7%	
O=C(C1CCCO1)N1CCN(C(=S)Nc2cc(F)cc(F)c2)CC1 (stereo not given)	inactive: 12.1%	
CCCn1c(NCc2ccccc2NS(=O)(=O)c2ccc(C)cc2)nc2ccccc21	inactive: -13%	
CCOc1ccccc1OC(=O)c1cc2ccccc2oc1=O	inactive: 17%	

SMILES	growth rescue (activation)	Potency
CCCC(=O)N/C(N)=N/c1nc(C)c2cc(C)ccc2n1	inactive: -5.2%	
CNC(=O)NC(=S)NC(=O)c1cccc(Cl)c1	inactive: -9.58%	
CCNC(=O)C1(C)CCN(Cc2cccc(C(F)(F)F)c2)C1 (stereo not given)	inactive: 11%	
O=[N+]([O-])c1ccccc1OCCOCCOc1cccc2cccnc12	inactive: 12.7%	
COc1ccc(/C=C(\NC(=O)c2ccccc2)C(=O)NCCN2CCOCC2)cc1OC	inactive: -7.23%	
Cc1ccc(OC2CCN(C(=O)C3CCC(=O)N(C4CC4)C3)CC2)cc1 (stereo not given)	inactive: 21.8%	
Cc1cc(C)cc(Cn2c3ccc(NC(=O)NCc4ccccc4)cc3c(=O)n2C)c1	inactive: 8.56%	
O=C(N/N=C/C=C/c1ccccc1)c1cccnc1	inactive: 4.41%	
O=C(CSc1nc2ccc([N+](=O)[O-])cc2[nH]1)NC1CCCC1	inactive: 20.2%	
Cc1cc(C)cc(NC(=O)Cn2c(=O)oc3cc(S(=O)(=O)N4CCCC4)ccc32)c1	inactive: -2.13%	
COc1cccc(/C=N/NC(=O)C(=O)N/N=C/c2cccc(OC)c2O)c1O	inactive: -8.7%	
CCCNC(=O)/C=C/c1ccc(S(=O)(=O)Nc2ccccc2OC)cc1	inactive: 4.49%	
COc1ccc(-c2csc(N3C(=O)CNC3=S)n2)cc1	inactive: -21.3%	
CCCNC(=O)NC(=O)CSc1nnc(-c2c[nH]c3ccccc23)o1	inactive: 9.88%	
CN(O)/C=C1\C(=O)Nc2ccccc21	inactive: 7.94%	
Cn1c(N)c(C(=O)COC(=O)c2ccc3ccccc3c2)c(=O)n(C)c1=O	inactive: 10.6%	
Nc1nc(Cl)nc(N(c2ccccc2)c2ccccc2)n1	inactive: 2.96%	
CC1(C(=O)Nc2ccccc2)CCN1C(=O)C1(c2ccc(Cl)cc2)CC1 (stereo not given)	inactive: 19.1%	
COc1cc(-c2coc3c(C(=O)NCc4ccncc4)cccc23)ccc1O	inactive: -5.43%	
O=C(N/C(=C\c1ccccc1)C(=O)N1CCCCC1)c1ccco1	inactive: 1.15%	
O=S(=O)(Nc1cccc(S(=O)(=O)N2CCCC2)c1)c1cccs1	inactive: 14.6%	
CC(C)c1cccc(OCCCCN(C)C)c1	inactive: -9.14%	
CCc1nn(CCCC(=O)NCc2ccccc2Br)c(=O)c2cc3occc3n12	inactive: -7.01%	
COc1ccc(NC(=O)CCNS(=O)(=O)c2cccc3nonc23)cc1	inactive: 6.36%	
O=C(NC(=S)NNC(=O)c1ccccc1O)c1cccs1	inactive: -52.1%	
Cc1cc(S(=O)(=O)N2CCOCC2)ccc1OCC(=O)Nc1ccc(Br)cc1F	inactive: 9.35%	
COc1ccccc1CCNC(=O)Nc1cccc([N+](=O)[O-])c1	inactive: 3.85%	
